# In PubChem BioAssay AID1347165 (National Center for Advancing Translational Sciences (NCATS), 2019):
# The whole screen tested about 220,000 compounds, of which about 5,700 (2.6%) were called active. Inconclusive results, whose numbers are uncertain, are shown with a selection of clear calls. Calls follow the shape of the dose curve; as a rule, active = well fitted inhibition curve with a large enough effect; inconclusive = small, poorly fitted or top-dose-only effect; inactive = no such curve, though single readings can be large or run the other way. Where the call is inconclusive, the potency comes from a doubtful curve fit.
# Biological target: Lysine-specific demethylase 5B (Homo sapiens) (UniProt Q9UGL1)
# Test: Primary screen for KDM5B Histone Demethylases FDH-coupled qHTS; also: nearly all actives have a fitted effect of over 70% in size
# Details: FDH-coupled NADH fluorescence (FDH is formaldehyde dehydrogenase); series mostly up to 57.7 µM
# Method in brief: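 KDM5BΔAP (200 nM final) in 50 mM HEPES pH 7.5, 0.01% Tween-20 was preincubated 10 min at RT with compound over a concentration range. Substrate mix (H3K4me3 12.5 µM, α-KG 25 µM, Fe²⁺, ascorbate, NAD⁺, FDH) was added, and NADH fluorescence change over 30 min gave dose-response curves.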
# Potency is read from the fitted curve at half-maximal effect; tags tell the direction and shape of the fitted curve.
# Chain of UniProt Q9UGL1 (Q9UGL1 whole entry, looked up): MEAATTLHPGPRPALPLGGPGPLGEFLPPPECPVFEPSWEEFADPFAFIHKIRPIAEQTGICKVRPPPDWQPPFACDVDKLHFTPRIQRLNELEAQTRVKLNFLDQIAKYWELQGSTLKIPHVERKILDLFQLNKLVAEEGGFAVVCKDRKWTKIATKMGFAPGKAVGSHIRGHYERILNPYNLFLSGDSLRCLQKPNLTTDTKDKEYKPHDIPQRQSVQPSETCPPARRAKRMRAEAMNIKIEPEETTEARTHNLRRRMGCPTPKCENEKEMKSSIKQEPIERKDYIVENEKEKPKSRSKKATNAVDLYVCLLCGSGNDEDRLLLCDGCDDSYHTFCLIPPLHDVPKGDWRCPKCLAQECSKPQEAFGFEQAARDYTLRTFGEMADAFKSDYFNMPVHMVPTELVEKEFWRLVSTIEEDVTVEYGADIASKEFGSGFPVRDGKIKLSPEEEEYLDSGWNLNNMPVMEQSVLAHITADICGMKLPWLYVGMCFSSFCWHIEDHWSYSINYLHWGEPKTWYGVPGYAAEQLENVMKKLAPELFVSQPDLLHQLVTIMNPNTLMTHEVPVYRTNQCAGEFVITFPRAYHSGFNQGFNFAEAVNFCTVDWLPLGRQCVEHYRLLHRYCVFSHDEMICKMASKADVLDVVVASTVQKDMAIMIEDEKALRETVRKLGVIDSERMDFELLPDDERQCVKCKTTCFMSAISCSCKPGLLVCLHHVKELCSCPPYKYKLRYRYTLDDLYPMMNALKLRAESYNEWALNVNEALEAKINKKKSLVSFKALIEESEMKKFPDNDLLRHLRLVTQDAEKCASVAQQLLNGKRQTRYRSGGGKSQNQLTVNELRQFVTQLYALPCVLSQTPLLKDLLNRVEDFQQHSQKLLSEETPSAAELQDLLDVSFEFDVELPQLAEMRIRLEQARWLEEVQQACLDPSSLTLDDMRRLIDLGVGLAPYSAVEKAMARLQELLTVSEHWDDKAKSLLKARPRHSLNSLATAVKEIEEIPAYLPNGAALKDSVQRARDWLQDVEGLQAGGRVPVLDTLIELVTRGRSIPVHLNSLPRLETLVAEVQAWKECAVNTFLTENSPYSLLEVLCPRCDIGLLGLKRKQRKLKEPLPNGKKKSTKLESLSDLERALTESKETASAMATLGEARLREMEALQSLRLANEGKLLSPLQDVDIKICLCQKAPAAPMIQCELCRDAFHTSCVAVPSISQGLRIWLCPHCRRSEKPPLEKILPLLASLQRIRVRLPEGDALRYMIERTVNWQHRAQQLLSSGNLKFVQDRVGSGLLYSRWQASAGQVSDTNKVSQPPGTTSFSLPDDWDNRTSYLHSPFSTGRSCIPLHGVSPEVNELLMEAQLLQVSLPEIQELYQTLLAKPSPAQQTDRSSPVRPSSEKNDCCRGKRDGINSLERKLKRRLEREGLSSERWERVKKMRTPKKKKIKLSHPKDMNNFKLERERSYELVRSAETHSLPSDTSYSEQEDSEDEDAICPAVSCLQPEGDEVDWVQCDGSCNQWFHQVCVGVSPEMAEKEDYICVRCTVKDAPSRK
row,SMILES,Potency
1,O=C(NCCc1csc(-c2ccccn2)n1)c1ccccc1,"inconclusive: 22.4 µM [inhibitor, partial curve, poor fit]"
2,COc1ccccc1NC(=O)c1oc2ccccc2c1NC(=O)COc1ccccc1OC,"inconclusive: 25.1 µM [inhibitor, partial curve, poor fit]"
3,O=C(O)/C=C/c1cc(Cl)ccc1OC(F)F,inactive
4,C#CCNC(=O)c1cc(-c2ccccc2OC)c2cnn(C)c2n1,active: 89.1 µM
5,CCCCCn1c(-c2cccc(C)c2)nc2ccccc21,"inconclusive: 44.7 µM [inhibitor, single point]"
6,N#Cc1c(C2CC2)cc(C(F)(F)F)[nH]c1=O,"inconclusive: 25.1 µM [inhibitor, partial curve, poor fit]"
7,Cc1nc(-c2ccc(S(=O)(=O)Nc3ccccc3F)cc2)co1,inactive
8,CN(C(=O)Cn1ncc2c1-c1ccccc1OC2)c1ccc(Br)cc1,"inconclusive: 25.1 µM [inhibitor, single point]"
9,Cc1ccc(-c2cc3ccccc3n2C)cc1,"inconclusive: 28.2 µM [inhibitor, single point]"
10,O=C(c1cccc(F)c1)N1CCN(Cc2cc(=O)n3ccsc3n2)CC1,inactive
11,COc1ccc(-c2noc([C@@H](C)NCC3CCCC3)c2C(=O)O)cc1,"inconclusive: 22.4 µM [inhibitor, partial curve]"
12,COc1ccc(C2CC(c3ccc(OC)cc3OC(C)=O)=NN2C(=O)c2ccccc2)cc1 (stereo not drawn),"inconclusive: 35.5 µM [inhibitor, single point]"
13,COc1cccc(CCC(=O)N2CCC(N3CC4CC(C3)[C@H]3CCCC(=O)N3C4)CC2)c1 (stereo partly drawn),"inconclusive: 22.4 µM [inhibitor, partial curve, poor fit]"
14,O=C1NCCCCCCN(Cc2ccncc2)[C@@H]2CN(S(=O)(=O)c3cccnc3)CC[C@@H]12,"inconclusive: 25.1 µM [inhibitor, single point]"
15,C[S+](=O)([O-])N1C[C@H](C(=O)N2CCN(c3ccccn3)CC2)C[C@@H]1c1ccc(F)cc1,"inconclusive: 31.6 µM [inhibitor, partial curve, poor fit]"
16,Cc1ccccc1-c1nccn2c(C3CN(Cc4ccccc4O)C3)ncc12,"inconclusive: 35.5 µM [inhibitor, partial curve, poor fit]"
17,COc1cc(/C=C/c2nc(C#N)c(NCc3ccc(F)cc3)o2)cc(OC)c1OC,"inconclusive: 25.1 µM [inhibitor, partial curve, poor fit]"
18,CCc1ccc(-n2nc(C)c3c(C(=O)N4CCN(c5cccc(Cl)c5)CC4)cc(C)nc32)cc1,"inconclusive: 2.24 µM [inhibitor, full curve, poor fit]"
